# Laboratory results reported in PubChem BioAssay AID1347071 (National Center for Advancing Translational Sciences (NCATS), 2019).
# About 260 (0.063%) of roughly 410,000 compounds were called active. The inconclusive results got no clear call from the source; some entries with a clear call stand among them for comparison. Calls come from the whole dose curve; as a rule, active = well fitted activation curve with a large enough effect; inconclusive = small, poorly fitted or top-dose-only effect; inactive = no such curve, though single readings can be large or run the other way. Potencies of inconclusive entries are left out as doubtful fits.
# Assay: qHTS for compounds that reverse cellular toxicity of Amyloid beta (A-beta) peptide in yeast: Primary Screen; note: nearly all actives have a fitted effect of over 55% in size
# Settings: yeast expressing A-beta42, growth rescue, OD600, 48 h; growth rescue: at 46.1 µM (top of the series), 0% DMSO, 100% iron-clioquinol control
# Outline: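 Yeast growth medium received pinned compounds, then yeast cells expressing toxic A-beta were added; plates incubated at 30 C for 48 hr. Growth read as absorbance at 600 nm, normalized to DMSO and equimolar FeCl3 plus clioquinol controls.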
# Potency is the fitted concentration of half-maximal effect; tags give direction and shape of the fitted curve.
SMILES,Potency,growth rescue
Cc1cccc(N2C(=O)CC(N3CCN(c4ccc(Cl)cc4)CC3)C2=O)c1 (stereo not drawn),"inconclusive [activator, single point]",
CCc1ccc(CN(Cc2ccco2)c2cnc(S(C)(=O)=O)nc2C(=O)Nc2c(C)cccc2C)cc1,"inconclusive [activator, partial curve, poor fit]",
COc1ccccc1CNC(=S)NCc1ccc(Cl)cc1,"inconclusive [activator, partial curve, poor fit]",
Cc1ccc(-c2nnc(SCC(=O)c3ccc(Cl)cc3)n2-c2ccccc2)cc1,inactive,
O=C(/C=C/c1cccc(Cl)c1)NCc1cccs1,inactive,
Cc1ccc(NC(=O)C2CCCN2C(=O)OCc2ccccc2)c(O)c1 (stereo not drawn),inactive,
CCCNC(=O)Cn1c(=O)cnc2ccccc21,"inconclusive [activator, full curve]",
CN(C)c1ccc(C(=O)OCC(=O)NC2CCCCCC2)cc1,inactive,
CS(=O)(=O)c1ccc(C(=O)NCC2(N3CCOCC3)CCCCC2)cc1,"inconclusive [activator, partial curve, poor fit]",
COc1cccc(-n2cnc3scc(-c4cccs4)c3c2=O)c1,inactive,
COc1ccc(-c2csc(C(O)c3cccc(OC)c3)n2)cc1 (stereo not drawn),"inconclusive [activator, partial curve]",
Cc1ccc2c(c1)N(C(=O)N1CCC(C(=O)NCc3ccccc3C)CC1)CC(C)O2 (stereo not drawn),inactive,
CCc1sc(C(=O)Nc2nc(C)cs2)cc1C,inactive,
Cc1ccc(C(=O)Cn2c(C(=O)OCCO)cc3ccccc32)cc1,"inconclusive [activator, full curve]",
CCN(Cc1ccccc1)C(=O)c1cc(-c2ccccc2)n[nH]1,inactive,
CCCCc1ccc(NC(=S)NCC2CCCO2)cc1 (stereo not drawn),active: 12.6 µM,
Cn1nnc(NC(=S)NC(=O)c2cc(Cl)ccc2Cl)n1,"inconclusive [activator, partial curve, poor fit]",
O=C(Nc1cccc(Cl)c1)C1CCCN(c2nn3cc(-c4ccc(F)cc4)nc3s2)C1 (stereo not drawn),inactive,
C=CC(=O)Nc1cccc(N(C)c2ccnc(Nc3ccc(N4CCN(C)CC4)cc3)n2)c1,"inconclusive [activator, single point]",
O=C(OCCNc1nc(-c2ccccc2)nc2ccccc12)c1cccnc1,inactive,
COc1ccccc1N/N=C(\C#N)C(=N)N1CCOCC1,"inconclusive [activator, single point]",
OC(CSc1nnnn1-c1ccccc1)Cn1c2ccccc2c2ccccc21 (stereo not drawn),"inconclusive [activator, partial curve]",
CCOc1ccccc1NC1(c2ccccc2)C(=O)c2ccccc2C1=O,inactive,
CCOc1c(Cl)cc(/C=N/NC(N)=S)cc1OC,"inconclusive [activator, single point]",
Cc1c(CCNC(=O)c2ccc(Br)o2)sc2nc(-c3ccc(Cl)cc3)nn12,inactive,

SMILES,Potency,growth rescue
S=C(N/N=C/c1ccc(Br)cc1)N1CCCCC1,"inconclusive [activator, full curve, poor fit]",
CCN(CC(=O)N1CCOCC1)S(=O)(=O)c1cc(Cl)ccc1Cl,inactive,
FC(F)(F)c1ccc2c3n(nc2c1)CCN=C3c1ccc(Cl)cc1,"inconclusive [activator, single point]",
COc1ccc(NC(=O)CSCC(=O)Nc2ccc(S(=O)(=O)N3CCCC3)cc2)cc1,"inconclusive [activator, single point]",
CCCN(CC(=O)Nc1ccccc1OC)C(=O)Cn1c(=O)oc2ccccc21,inactive,
Cc1ccc(C(=O)C(=O)c2ccc(C)c(N)c2)cc1N,"inconclusive [activator, partial curve, poor fit]",
Cc1ccc(N=Nc2ccc(O)c3ncccc23)cc1,"inconclusive [activator, single point]",
Cc1c(C(C)(C)O)[nH]c2cc(C(F)(F)F)ccc12,"inconclusive [activator, single point]",
Cc1nc(N)sc1-c1csc(Nc2ccc(Cl)cn2)n1,inactive,
CCOC(=O)c1c(CC(C)C)csc1NC(=O)COC(=O)C1=NNC(=O)CC1,"inconclusive [activator, partial curve, poor fit]",
Cc1cccc(NS(=O)(=O)c2ccc(C(=O)N3CCN(c4ccccc4O)CC3)cc2)c1C,inactive,
O=S(=O)(NCCc1csc(-c2ccc(F)cc2)n1)c1ccc(Cl)cc1,active: 6.31 µM,
O=C(CNC(=O)c1ccccc1F)OCc1nc2ccc(Cl)cc2n1CCO,"inconclusive [activator, single point]",
CCSc1ccccc1C(=O)N1CCN(c2ccccc2F)CC1,"inconclusive [activator, partial curve, poor fit]",
Cc1ccc(Nc2c([N+](=O)[O-])c(=O)n(C)c3ccccc23)cc1,inactive,
COc1cc(C(=O)NNC(=S)NC(=O)c2ccccc2C)cc(OC)c1OC,"inconclusive [activator, partial curve, poor fit]",
CC(C)N=c1c([N+](=O)[O-])nn(C)n1O,"inconclusive [activator, single point]",
S=C(NCc1ccccc1)NC1CCSc2ccccc21 (stereo not drawn),"inconclusive [activator, single point]",
CN(C)c1ccc(/C=C/c2ccc3c4ccccc4ccc3[n+]2-c2ccccc2)cc1,inactive,
COCCNC(=S)N1CCc2cc(OC)c(OC)cc2C1COc1cc(C)cc(C)c1 (stereo not drawn),"inconclusive [activator, full curve, poor fit]",
CCOc1cccc(/C=C(\C#N)C(=O)NC2CC2)c1,"inconclusive [activator, single point]",
Cn1c(=O)c2c([nH]c(=O)n2C)n(Cc2ccccc2)c1=O,"inconclusive [activator, partial curve, poor fit]",
Cc1nnc(N2C(=O)c3cccc4cccc(c34)C2=O)s1,inactive,
COc1ccc(C(O)(CCC(C)C)C(CN2CCOCC2)c2ccc(Cl)cc2)cc1 (stereo not drawn),"inconclusive [activator, single point]",
CNc1nc(N)c(C(=O)Nc2cc(C)on2)s1,"inconclusive [activator, partial curve, poor fit]",

SMILES,Potency,growth rescue
Cc1cc2nc3ccc(=[N+](C)C)cc-3sc2cc1N,inactive,
CC(=O)NC(c1ccc(N(C)C)cc1)c1cc(Cl)c2cccnc2c1O (stereo not drawn),inactive,
CCc1ccccc1NNC(=O)CCc1ccccc1,"inconclusive [activator, single point]",
Cc1ccc2nc(-c3ccccn3)c(Nc3ccc(F)cc3)n2c1,"inconclusive [activator, single point]",
Cc1cccc(-c2n[nH]c(=S)n2/N=C/C=C/c2ccco2)c1,"inconclusive [activator, single point]",
Cc1nc(SCc2nc3c([N+](=O)[O-])cccc3[nH]2)c2oc3ccccc3c2n1,,inconclusive: 38.1% [activator]
O=C(OC(C(=O)Nc1ccc(Cl)c(C(F)(F)F)c1)c1ccccc1)C1=COCCO1 (stereo not drawn),"inconclusive [activator, partial curve, poor fit]",
CC(=O)Nc1cccc(OCCCOc2cccc([N+](=O)[O-])c2)c1,inactive,
Cc1ccc2ccc(C(Nc3ccccn3)c3ccccc3)c(O)c2n1 (stereo not drawn),inactive,
CC1CCCCC1NC(=O)CSc1ccc([N+](=O)[O-])cc1 (stereo not drawn),"inconclusive [activator, single point]",
COc1ccc(NCC(O)Cn2c(C)c(C)c3ccccc32)cc1 (stereo not drawn),"inconclusive [activator, partial curve]",
c1coc(C2Nc3ccccc3C3OCCC23)c1 (stereo not drawn),"inconclusive [activator, single point]",
CC1c2cc3c(cc2CCN1C(=O)c1cccc(Cl)c1)OCCCO3 (stereo not drawn),inactive,
CSc1cccc(NC(=S)Nc2cc(C)ccc2C)c1,"inconclusive [activator, partial curve, poor fit]",
CCCc1cc(=O)[nH]c(SCc2ccc(Cl)cc2)n1,"inconclusive [activator, full curve]",
C/C(=N\NC(=S)Nc1c(C)cccc1C)c1ccc(OC(F)F)cc1,"inconclusive [activator, partial curve]",
S=C(NCCCc1ccccc1)NCc1ccccc1,"inconclusive [activator, partial curve, poor fit]",
O=S(=O)(NCCn1cccc1)c1ccc2ccccc2c1,"inconclusive [activator, single point]",
CC(C)(C)C1CCc2nc(NC(=O)Cc3ccc(Cl)cc3)sc2C1 (stereo not drawn),"inconclusive [activator, single point]",
O=C(NC(=S)NCc1ccc2c(c1)OCO2)c1ccccc1,"inconclusive [activator, partial curve]",
Cc1ccc(NNC(=S)Nc2ccc(C(C)C)cc2)c(C)c1,"inconclusive [activator, partial curve, poor fit]",
COc1ccc(N2CCN(S(=O)(=O)c3ccc4c(c3)CC(C)N4C(C)=O)CC2)cc1 (stereo not drawn),inactive,
CSCc1cc(N2CCOCC2)nc(SCc2ccc(Cl)cc2Cl)n1,"inconclusive [activator, partial curve, poor fit]",
